For five compounds, cell count results are on record in the supplement of paper PMC4604168 (melanoma cell lines).

This is one part of the list. Repeats are few or missing, and single values can be far off.
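Also: cells treated in 1,536-well plates, then fixed and DAPI-stained, with nuclei counted from automated high-throughput microscope images.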

In this experiment the test system is UACC257. Description: cell count relative to DMSO control; melanoma cells; higher = more viable cells. The following applies: library dose: standard library concentration; 72 h.
`Cc1cc(Nc2cc(N3CCN(C)CC3)nc(Sc3ccc(NC(=O)C4CC4)cc3)n2)n[nH]1` [Tozasertib] + O=C(CCCCCCC(=O)Nc1ccccc1)NO [vorinostat] (first compound 0.03 µM, partner dose 0.4 µM) had a cell count of 70.5%.

For the compound `Cc1cc(Nc2cc(N3CCN(C)CC3)nc(Sc3ccc(NC(=O)C4CC4)cc3)n2)n[nH]1` [Tozasertib] + Nc1nc(F)nc2c1ncn2[C@@H]1O[C@H](CO)[C@@H](O)[C@@H]1O [fludarabine] (first compound 0.03 µM, partner dose 1 µM), the cell count was 39.9%. `N#CC[C@H](C1CCCC1)n1cc(-c2ncnc3[nH]ccc23)cn1` [ruxolitinib] + C=CCNC1=C2C[C@@H](C)C[C@H](OC)[C@H](O)[C@@H](C)/C=C(\C)[C@H](OC(N)=O)[C@@H](OC)/C=C\C=C(/C)C(=O)NC(=CC1=O)C2=O [Tanespimycin] (first compound 5 µM, partner dose 0.01 µM) came in with a cell count of 86.1%. Compound `N#CC[C@H](C1CCCC1)n1cc(-c2ncnc3[nH]ccc23)cn1` [ruxolitinib] + CO[C@@H]1[C@H](N(C)C(=O)c2ccccc2)C[C@H]2O[C@]1(C)n1c3ccccc3c3c4c(c5c6ccccc6n2c5c31)C(=O)NC4 [Midostaurin] (first compound 5 µM, partner dose 0.4 µM) came in with a cell count of 50.5%.

`Cc1cc(Nc2cc(N3CCN(C)CC3)nc(Sc3ccc(NC(=O)C4CC4)cc3)n2)n[nH]1` [Tozasertib] + COc1cc2c(Oc3ccc4[nH]c(C)cc4c3F)ncnc2cc1OCCCN1CCCC1 [cediranib] (first compound 0.03 µM, partner dose 2 µM) displayed a cell count of 83.3%.
